Experiment [1] has as its system HSkMC (human skeletal muscle cells). The experiment in a line: cytotoxicity call (relative viability < 0.9). As to conditions: 10 µM.
Experiment [2] relates to HepG2. Put plainly: cytotoxicity call (relative viability < 0.9). Particulars: 10 µM.
Experiment [3] has as its system S. aureus RN4220. Put plainly: growth inhibition call (relative growth <= 0.2). Particulars: 50 µM.

Some of the results follow.

For the compound `C[C@@H]1CCCCO[C@@H](CN(C)Cc2ccc(C(F)(F)F)cc2)[C@@H](C)CN([C@H](C)CO)C(=O)c2cc(NC(=O)Nc3ccc(C(F)(F)F)cc3)ccc2O1`, the cytotoxicity call in experiment [1] and in experiment [2] was “inactive” throughout. Moreover, the growth inhibition call in experiment [3] was “inactive”.
For `COc1cc(C(C)=O)ccc1O`, the cytotoxicity call in experiment [1] and in experiment [2] was “inactive” each time. For the same compound, the growth inhibition call in experiment [3] is “inactive”.
Consider `O.OCC1OC(OC2C(CO)OC(O)C(O)C2O)C(O)C(O)C1O` (stereo unspecified), for which, in experiment [1], the cytotoxicity call is “inactive”. Further, the cytotoxicity call in experiment [2] is “active”. Also, the growth inhibition call in experiment [3] was “inactive”.
Consider `COc1ccc(NC(=O)Nc2ccc3c(c2)C(=O)N([C@@H](C)CO)C[C@H](C)[C@H](CN(C)C(=O)Nc2ccc4c(c2)OCO4)OCCCC[C@@H](C)O3)cc1`, for which the cytotoxicity call in experiment [1] and in experiment [2] was “inactive” each time. Besides, the growth inhibition call in experiment [3] is “inactive”.
As to `COC(=O)[C@H](Cc1ccc(-n2cc(-c3cccc(/C=C/C(=O)NO)c3)nn2)cc1)N1CC2=C[C@H]([C@@H](O)Cc3ccccc3)n3c(=O)n(C)c(=O)n3[C@@H]2[C@@H](C2CC2)O1`, the cytotoxicity call in experiment [1] was “inactive”. Besides, in experiment [2], the cytotoxicity call was “active”. The growth inhibition call in experiment [3] is “inactive”.
As for `Cc1ccc(S(=O)(=O)N(C)C[C@H]2Oc3ccc(NS(=O)(=O)c4cccs4)cc3C(=O)N([C@@H](C)CO)C[C@@H]2C)cc1`, the cytotoxicity call in experiment [1] and in experiment [2] was “inactive” throughout. Moreover, the growth inhibition call in experiment [3] was “inactive”.
In the case of `COCCNC(=O)C[C@@H]1C[C@@H]2c3cc(NS(C)(=O)=O)ccc3O[C@@H]2[C@H](CO)O1`, the cytotoxicity call in experiment [1] and in experiment [2] was “inactive” in each case. Besides, in experiment [3], the growth inhibition call was “inactive”.
With `C[C@@H]1CN([C@@H](C)CO)C(=O)c2cccc(NC(=O)Nc3ccc4c(c3)OCO4)c2O[C@H]1CN(C)Cc1ccc(C(F)(F)F)cc1`, the cytotoxicity call in experiment [1] and in experiment [2] was “active” throughout. In experiment [3], the growth inhibition call was “inactive”.
Consider `COc1ccc(S(=O)(=O)Nc2ccc3c(c2)C(=O)N([C@@H](C)CO)C[C@@H](C)[C@H](CN(C)S(=O)(=O)c2cn(C)cn2)O3)cc1`, for which the cytotoxicity call in experiment [1] and in experiment [2] was “inactive” throughout. Also, in experiment [3], the growth inhibition call is “inactive”.
For the compound `CN1C(=O)c2cc(NC(=O)Nc3ccccc3F)ccc2OC[C@@H]2O[C@H](CC(=O)NCc3ccc(-c4ccccc4)cc3)CC[C@H]21`, the cytotoxicity call in experiment [1] and in experiment [2] was “inactive” each time. The growth inhibition call in experiment [3] was “inactive”.
As for `O=C(C[C@@H]1CC[C@H](NC(=O)CN2CCOCC2)[C@H](CO)O1)NC1CCC1`, the cytotoxicity call in experiment [1] and in experiment [2] was “inactive” in each case. Also, in experiment [3], the growth inhibition call was “inactive”.
For `COc1cccc(S(=O)(=O)N(C)C[C@@H]2Oc3cc(C4=CCCC4)ccc3S(=O)(=O)N([C@H](C)CO)C[C@H]2C)c1`, the cytotoxicity call in experiment [1] and in experiment [2] was “inactive” throughout. Also, in experiment [3], the growth inhibition call is “inactive”.
Take `C[C@@H]1CCCCO[C@@H](CN(C)Cc2ccc(C(F)(F)F)cc2)[C@@H](C)CN([C@H](C)CO)C(=O)c2cc(NC(=O)CCC(F)(F)F)ccc2O1`: the cytotoxicity call in experiment [1] and in experiment [2] was “inactive” in each case. The growth inhibition call in experiment [3] is “inactive”.
With `CC(=O)N[C@@H]1CC[C@@H](CCNC(=O)C2CC2)O[C@H]1CO`, the cytotoxicity call in experiment [1] and in experiment [2] was “inactive” each time. For the same compound, the growth inhibition call in experiment [3] was “inactive”.
As to `O=C(C[C@@H]1CC[C@H]2[C@@H](COC[C@H](O)CN2C(=O)c2cccnc2)O1)NCc1ccc(-c2ccccc2)cc1`, the cytotoxicity call in experiment [1] and in experiment [2] was “inactive” each time. In addition, the growth inhibition call in experiment [3] was “inactive”.
On to `C[C@H]1CN([C@@H](C)CO)C(=O)Cc2cc(N(C)C)ccc2O[C@@H]1CN(C)S(=O)(=O)c1ccc(F)cc1`, for which the cytotoxicity call in experiment [1] and in experiment [2] was “inactive” each time. Besides, the growth inhibition call in experiment [3] is “inactive”.
On to `C[C@H](CO)N1C[C@H](C)[C@@H](CN(C)S(=O)(=O)c2ccc(F)cc2)Oc2ccc(NS(=O)(=O)c3cn(C)cn3)cc2CC1=O`, for which the cytotoxicity call in experiment [1] and in experiment [2] was “inactive” in each case. In experiment [3], the growth inhibition call was “inactive”.
On to `CCO[C@@H]1OC(C(=O)N2CCN(Cc3ccc4c(c3)OCO4)CC2)=C[C@H](c2ccc(Br)cc2)[C@H]1CCCOC(=O)NCCCCCC(=O)NO`, for which the cytotoxicity call in experiment [1] and in experiment [2] was “inactive” each time. Also, the growth inhibition call in experiment [3] was “inactive”.
On to `C[C@H]1CCCCO[C@@H](CN(C)C(=O)NC2CCCCC2)[C@@H](C)CN([C@@H](C)CO)C(=O)c2cc(NC(=O)CCC(F)(F)F)ccc2O1`, for which the cytotoxicity call in experiment [1] and in experiment [2] was “inactive” in each case. For the same compound, in experiment [3], the growth inhibition call is “inactive”.
Regarding `C[C@@H](O)[C@@H](O)[C@@H](O)C/C=N/NC(=O)c1ccc(C(=O)NO)cc1`, the cytotoxicity call in experiment [1] and in experiment [2] was “inactive” in each case. Moreover, the growth inhibition call in experiment [3] was “inactive”.
With `C[C@@H]1CCCCO[C@@H](CN(C)C(=O)NC2CCCCC2)[C@H](C)CN([C@@H](C)CO)C(=O)c2cc(NC(=O)NC3CCCCC3)ccc2O1`, the cytotoxicity call in experiment [1] and in experiment [2] was “inactive” each time. The growth inhibition call in experiment [3] was “inactive”.
Turning to `CC(=O)N(O)CCC[C@H]1NC(=O)CNC(=O)CNC(=O)CNC(=O)[C@@H](CCCN(O)C(C)=O)NC(=O)[C@@H](CCCN(O)C(C)=O)NC1=O`, the cytotoxicity call in experiment [1] and in experiment [2] was “inactive” throughout. Further, the growth inhibition call in experiment [3] was “inactive”.
Turning to `C[C@H]1CN([C@@H](C)CO)C(=O)c2cc(NC(=O)CCCN(C)C)ccc2O[C@H]1CN(C)Cc1ccc2c(c1)OCO2`, the cytotoxicity call in experiment [1] and in experiment [2] was “inactive” each time. Besides, in experiment [3], the growth inhibition call was “inactive”.
For `CC(C)CC#Cc1ccc2c(c1)O[C@H](CN(C)C(=O)Cc1ccncc1)[C@H](C)CN([C@H](C)CO)S2(=O)=O`, the cytotoxicity call in experiment [1] and in experiment [2] was “inactive” each time. Besides, the growth inhibition call in experiment [3] is “inactive”.
With `O=S(=O)(c1ccccc1)N1CCN(CCO)CC1`, the cytotoxicity call in experiment [1] and in experiment [2] was “inactive” throughout. Also, the growth inhibition call in experiment [3] was “inactive”.
For `C[C@@H]1CN([C@H](C)CO)S(=O)(=O)c2ccc(C#CC(C)(C)O)cc2O[C@@H]1CN(C)Cc1ccncc1`, the cytotoxicity call in experiment [1] and in experiment [2] was “inactive” each time. Also, the growth inhibition call in experiment [3] was “inactive”.
As to `C[C@@H]1CCCCO[C@@H](CN(C)C(=O)Nc2ccc3c(c2)OCO3)[C@@H](C)CN([C@H](C)CO)C(=O)c2cc(NC(=O)Nc3cccc4ccccc34)ccc2O1`, the cytotoxicity call in experiment [1] and in experiment [2] was “inactive” throughout. The growth inhibition call in experiment [3] is “inactive”.

Values taken from the antibiotic and cytotoxicity screens of Wong et al. (2023).
